According to the supplement of paper PMC11417369:
± gives the standard deviation of the averaged measurements. The list shows a part of the results.

System: PfAP2-EXP AP2 domain (GST-tagged)
Assay: gcPBM binding intensity (ln(normalized median fluorescence intensity)); higher = stronger DNA binding
How it was run: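 The binding buffer was 1× PBS containing 1% milk, 0.2 mg/ml BSA, 0.5% salmon testes DNA and 0.03% Triton X-100. In it, GST-tagged P. falciparum DNA-binding domains expressed in E. coli were applied for 1 h to an Agilent 4 × 180k array of primer-extended double-stranded 36-bp intergenic genomic probes plus negative controls. Binding intensity, read with Alexa488 anti-GST antibody and a 488 nm scan, is the highest Masliner-normalised natural-log median intensity across replicate spots of either probe orientation.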

Row | Sequence | gcPBM binding intensity (ln)
1 | TATATAACATATAACACACATACTTAGTATTACATA [CACACA_site3099] | 8.24 ± 0.28
2 | TACGAAAAAAAAAAAAAAAAAAAAAAACACAAAAAA [CACACA_negctrl_site1643] | 8.15 ± 0.61
3 | AATACCATAATCAATGCACACATAACAAAATATTAT [CACACA_site8873] | 8.62 ± 0.33
4 | ATATAATGGACCATAGTGCATAAAAATAACAAAAAA [GTGCAC_site9558] | 9.02 ± 0.16
5 | TTTTTATATTTTATAGTGCAAAAACTTACATAAAAT | 8.43 ± 0.17
6 | TATTTTTTTTCTTTATTTATAACGCTCAATATATTC [GTGCAC_negctrl_site265] | 8.72 ± 0.47
7 | TGGAAATATATATATATATATACATATATATATAGC [XGTACX_negctrl_site107] | 8.32 ± 0.26
8 | CATATAAATATATATACACACACACCGTAATACATA [CACACA_site9158] | 8.73 ± 0.38
9 | ATTTTATAACATTCATGTACACATTTCATTTATTTG [XGTACX_site3028] | 8.81 ± 0.4
10 | TTTTAATATTTTAAGAGTACAGAAATATATAATATG [XGTACX_site4955] | 8.62 ± 0.46
11 | AGAGACACTTTTTATTGTACAAGAGGAGGTTACCTT [XGTACX_site8768] | 8.59 ± 0.57
12 | CATTATGTTGTAAATACACACATACAGATACATACA [CACACA_site4565] | 8.68 ± 0.42
13 | TTTTTTGGTTTTCATGCACACAATTTATAAATCTAT [CACACA_site3106] | 9 ± 0.18
14 | TAAAGGCAAACAAACACACACACATAAATACAGATA [CACACA_site5204] | 8.86 ± 0.5
15 | ATATGCGTTTGCAAATGTACATATTATTTATATATA [XGTACX_site7128] | 9.15 ± 0.45
16 | ATAATTCTTTTACTGTGTACATATTATCACTTATTT [XGTACX_site2456] | 9.04 ± 0.33
17 | TGTAATTGTTTAAAGGGTACATATATCAGATGTCTT [XGTACX_site5877] | 8.34 ± 0.45
18 | TGGAAACAATGACACACACACAAAAAAAAAAAAAAA [CACACA_site7494] | 8.24 ± 0.5
19 | TTTTGTTTTTGTAGAGTGCATAAAGAAGATATGTAT | 8.81 ± 0.25

Row | Sequence | gcPBM binding intensity (ln)
20 | TTATCTCTACAAAGTGCACACACGTAAAAACATATA [CACACA_site3957] | 9.08 ± 0.37
21 | GTAGGGGAAAAAAAAACACACAAAAAACAACAGATC [CACACA_site1187] | 8.94 ± 0.55
22 | TATAAATACTTAGAAACACACAAAAATATTTTATAA [CACACA_site7259] | 8.54 ± 0.46
23 | AAAAATTAAAATATAACTAATTAATTTGTATTCATT [CACACA_negctrl_site1633] | 7.87 ± 0.34
24 | ATAATAATATTTCTATGTACTTATTTTATGTATTAG [XGTACX_site1747] | 8.51 ± 0.4
25 | AACACATACAGATATGCACACATTTTATTCCATTAT [CACACA_site5565] | 8.84 ± 0.34
26 | TTTTTATATTTCAACATATCACAATTTTATATATCT [CACACA_negctrl_site178] | 8.45 ± 0.34
27 | TATTTATAAATGAACACACACGCAATTTGAATCGAA [CACACA_site3371] | 8.92 ± 0.52
28 | ATATATATATTATATGCACACTTATATTTCATTAGA [CACACA_site5439] | 9.29 ± 0.12
29 | GAATATAAACCTATTACACACATCTATATGTACATT [CACACA_site1914] | 8.63 ± 0.41
30 | CTATATCATTTTCTAGCACACACATTGTTATTACCT [CACACA_site8204] | 8.9 ± 0.39
31 | ATTTTTTTTATTATTACACACATATAACAAAAAAAT [CACACA_site6934] | 8.48 ± 0.43
32 | TTTTTTATGCTAACTTCTTTTTCCTTATAAAATTGG [TGCATGCA_negctrl_site598] | 8.68 ± 0.56
33 | AAAAAGAAAAAATATATTCGTCTATTATAAACAATA [CACACA_negctrl_site648] | 8.16 ± 0.42
34 | TAAATATTAACAATCGCACACATATTATTTTTCCAA [CACACA_site1626] | 8.31 ± 0.42
35 | AAGGTAAACAGACACACACACATACAAAAAAAAAAA [CACACA_site3768] | 8.64 ± 0.47
36 | GAATATATATTCATATGTACACAATTTATGTATTAT [XGTACX_site4719] | 8.58 ± 0.2
37 | ATATAAATATAGTGTGCACACACATAATATATATAT [CACACA_site8713] | 9.38 ± 0.057
38 | TATATTTTAAAATTATGTACATATATAGATAAATGT [XGTACX_site1349] | 8.56 ± 0.38

Row | Sequence | gcPBM binding intensity (ln)
39 | AAAATAAATTGTGAAGGTACACAAATTATTATGTGG [XGTACX_site4196] | 8.42 ± 0.33
40 | ATATATATATATAATACACACATCATAAAATATGTA [CACACA_site2518] | 9.89 ± 0.18
41 | AAATACAAAATTGTTACACACATATTAATTATGACA [CACACA_site476] | 8.29 ± 0.37
42 | TATCATCATGTATGTACACACATACAGATATTATGT [CACACA_site4888] | 8.46 ± 0.28
43 | TATATATATATATATATATATATATATATAATATTA [XGTACX_negctrl_site558] | 10.1 ± 0.42
44 | AATCATATTTAGATTACACACAGTTTAAATATTTTA [CACACA_site1263] | 8.27 ± 0.42
45 | TGTAATGTTTACAACACACAAATTATAAATACAAAA [CACACA_site5047] | 8.55 ± 0.4
46 | TATTTAAATGGATGCACACATGCATTAAATAAAATA [CACACA_site3433] | 8.57 ± 0.11
47 | TACAAACAGACATATACACACAAAAAAAAAATAAAA [CACACA_site2562] | 8.63 ± 0.54
48 | TCGATATATAGACACACACACTTTTAATAATTAAAT [CACACA_site7726] | 8.55 ± 0.42
49 | TTATGCAGATAAAAGAGTACATATTCGTTACATACA [XGTACX_site2849] | 8.56 ± 0.38
50 | TTAGTAAATACATTTGCACACATTATTTTTTAACAT [CACACA_site5448] | 8.56 ± 0.2
51 | TATATATTTTTTTCATGTACTTATTATATATATATA [XGTACX_site5321] | 9.58 ± 0.16
52 | ATGAATATATATATTTGTACATATGTATATATATAT [XGTACX_site7527] | 9.71 ± 0.15
53 | GGAAATATAAAATCATGTACATATGTATATATAATT [XGTACX_site5491] | 8.7 ± 0.33
54 | AGTATAGATGTATACACACACCAAACGTTAAAAAAA [CACACA_site7443] | 8.71 ± 0.53
55 | ATATGGCACATATGTACACACGTATAGATAATATTA [CACACA_site5162] | 8.88 ± 0.33
56 | ACATACATTTTTAAATGTACATATATATATATATAT [XGTACX_site6751] | 10.2 ± 0.61
57 | CCGATATAATGGAAAACACACAAAAGATATATATAT [CACACA_site2683] | 9.555 ± 0.064
